# Source: paper PMC4336329 (PLoS ONE, 2015)
# The campaign covered roughly 310,000 compounds. About 2,200 (0.71%) showed an effect of 50% or more. The effect is printed as a negative number. Some of the results follow.
# Target: human ether-à-go-go-related gene (hERG) potassium channel (human, UniProt Q12809)
# Assay: primary screen, population patch clamp on CHO cells stably expressing hERG
# human ether-à-go-go-related gene (hERG) potassium channel, sequence (Q12809 whole entry, looked up): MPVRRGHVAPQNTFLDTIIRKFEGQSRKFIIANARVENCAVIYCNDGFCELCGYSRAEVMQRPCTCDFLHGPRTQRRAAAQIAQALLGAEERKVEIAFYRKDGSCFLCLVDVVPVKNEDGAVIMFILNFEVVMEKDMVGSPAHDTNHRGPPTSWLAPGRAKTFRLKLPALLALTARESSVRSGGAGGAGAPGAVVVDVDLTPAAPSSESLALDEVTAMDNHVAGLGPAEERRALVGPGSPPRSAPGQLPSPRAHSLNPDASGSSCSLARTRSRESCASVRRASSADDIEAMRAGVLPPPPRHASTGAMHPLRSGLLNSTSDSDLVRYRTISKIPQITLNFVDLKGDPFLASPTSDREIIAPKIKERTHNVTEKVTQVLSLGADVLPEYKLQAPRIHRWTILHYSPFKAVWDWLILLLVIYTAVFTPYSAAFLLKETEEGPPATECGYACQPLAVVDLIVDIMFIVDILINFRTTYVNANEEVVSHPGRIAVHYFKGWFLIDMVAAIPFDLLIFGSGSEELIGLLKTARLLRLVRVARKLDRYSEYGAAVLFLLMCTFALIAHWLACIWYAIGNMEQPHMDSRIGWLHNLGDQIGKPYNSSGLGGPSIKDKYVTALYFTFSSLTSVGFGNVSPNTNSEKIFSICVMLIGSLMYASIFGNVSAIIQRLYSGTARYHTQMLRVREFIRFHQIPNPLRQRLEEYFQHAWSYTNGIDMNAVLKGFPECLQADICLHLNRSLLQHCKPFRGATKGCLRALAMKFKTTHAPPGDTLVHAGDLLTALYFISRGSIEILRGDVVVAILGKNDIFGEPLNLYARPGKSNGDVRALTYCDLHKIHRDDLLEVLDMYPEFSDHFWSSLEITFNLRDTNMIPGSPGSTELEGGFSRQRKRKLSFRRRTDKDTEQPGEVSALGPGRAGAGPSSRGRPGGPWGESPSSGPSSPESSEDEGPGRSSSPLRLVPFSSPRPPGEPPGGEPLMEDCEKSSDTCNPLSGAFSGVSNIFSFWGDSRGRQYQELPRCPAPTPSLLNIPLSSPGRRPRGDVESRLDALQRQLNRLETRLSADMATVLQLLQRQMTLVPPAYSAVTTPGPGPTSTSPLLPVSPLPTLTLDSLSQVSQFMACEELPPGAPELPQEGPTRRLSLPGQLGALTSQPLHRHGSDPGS
row,SMILES,"hERG current change (%, negative = inhibition) at 1uM [%]"
1,O=C(Cn1cnc2sc3c(c2c1=O)CCCC3)NCC(=O)Nc1ccc(F)cc1F,9.73
2,O=C(C1CCN(Cc2cccs2)CC1)N1CCN(Cc2ccc3c(c2)OCO3)CC1.O=C(O)C(=O)O,5.24
3,C=CCn1c(/N=C/c2ccc3c(c2)OCO3)nc2ccccc21,6.96
4,CCOC(=O)C1=C(CP(=O)(c2ccccc2)c2ccccc2)NC(=O)NC1c1ccc(Cl)cc1 (stereo not shown),9.29
5,Cc1noc(/C=C/N(C)C)c1S(=O)(=O)N1CCCC(C(=O)NCc2ccccc2Cl)C1 (stereo not shown),13.6
6,COc1ccc(/C=C/CN2CCCC(CCC(=O)NCc3ccc(F)c(F)c3)C2)cc1 (stereo not shown),-54.3
7,CC(=O)c1c(C)[nH]c(C(=O)COc2ccc3ccc(=O)oc3c2)c1C,4.35
8,O=C(CCn1nc(-c2ccccc2)c2ccccc2c1=O)NN1CCOCC1,10.1
9,CCOC(=O)c1c(C)nc2sc3c(=O)[nH]cnc3c2c1-c1ccc(OC)cc1,11.8
10,COc1ccc(-n2c(CN3CCC(C)CC3)nc3ccc([N+](=O)[O-])cc3c2=O)c(OC)c1,10.3
11,C=CCc1cccc2cc(C(=O)NC)c(=O)oc12,2.09
12,CCc1nc(N)c(C#N)c(-c2ccc(OC)c(OC)c2)c1C,13.5
13,O=C(CN1C(=O)C2C3C=CC(C3)C2C1=O)NC1CCCc2ccccc21 (stereo not shown),11.2
14,COc1ccccc1NC(=S)NCc1ccc(Cl)cc1,8.37
15,O=C1NCCN1CCNS(=O)(=O)c1ccc(F)c(Cl)c1,3.67
16,CCN(CC(=O)NCc1cccs1)C(=O)c1ccccc1F,1.34
17,Cc1cc(NC(=O)c2cc3nc(C4CC4)cc(C(F)(F)F)n3n2)no1,0.67
18,O=C(NCCC1=CCCCC1)C1CC(=O)N(Cc2ccccc2)C1 (stereo not shown),10.2
19,Cc1ccc(CN2C(=O)NC(=O)C3(Cc4c(nc5ccccn5c4=O)N4CCCCCC43)C2=O)cc1 (stereo not shown),4.44
20,O=C1c2ccccc2C(=O)N1CCc1ccccc1,10.8
21,O=C(COc1ccc([N+](=O)[O-])cc1)Nc1ccc(C(=O)NCc2cccnc2)cc1,6.9
22,N#Cc1nc(Cc2cccc3ccccc23)oc1N1CCC(C(N)=O)CC1,-5.51

row,SMILES,"hERG current change (%, negative = inhibition) at 1uM [%]"
1,COc1ccccc1C(=O)COC(=O)CSCC(=O)Nc1cc(C)on1,14.8
2,O=C1C=C(c2ccc3c(c2)OCO3)C[C@@H](c2ccc3c(c2)OCO3)C1,8.54
3,CCOc1ccccc1NC(=O)CSC1=C(C#N)C(c2ccco2)C(C(=O)Nc2nc3ccccc3s2)=C(C)N1 (stereo not shown),5.87
4,CCCS(=O)(=O)N1CCC(C(=O)NCCCN(C)Cc2ccccc2)CC1,0.918
5,COC(=O)C1=C(C)N(C2CCCC2)C(=O)C1(NC(C)=O)C(F)(F)F (stereo not shown),4.73
6,CC(=O)N1CCN(c2ccc(C(N)=O)cc2[N+](=O)[O-])CC1,9.41
7,CC1(C)CC(NC(=O)N2c3ccccc3Sc3ccccc32)CC(C)(C)N1,10.4
8,COc1ccc(C2CC(c3cccs3)=NN2C(=O)c2ccco2)cc1OC (stereo not shown),5.22
9,COc1ccccc1/C=N/NC(=O)c1sc(C)nc1C,14.6
10,Cc1cnc(NC(=O)CSc2nnc(Cc3ccccc3)o2)s1,9.76
11,O=C(CC1C(=O)NCCN1CCCc1ccccc1)NCCc1ccccc1F (stereo not shown),10.9
12,COC(=O)CNC(=O)c1c(-c2ccccc2Cl)noc1C,-0.146
13,CCNC(=O)C/C(C)=N/NC(=O)C1CCCCC1,8.03
14,COCCN(Cc1nc(C(c2ccccc2)c2ccccc2)no1)C(C)C,4.77
15,COc1ccc(/C(=C/c2ccc(OC(F)F)c(OC)c2)C(=O)O)cc1OC,1.22
16,NC(=O)c1ccsc1NC(=O)COC(=O)COc1ccc(C=O)cc1,14.3
17,Cc1ccc2c(c1)N(C(=O)CCC(=O)N1CCCCC1)CCO2,-10.5
18,CC(C)COC(=O)/C(C#N)=C/c1cn(Cc2ccccc2)c2ccccc12,10.7
19,COc1ccc(C(=O)Nc2cccc(OC(=O)c3ccco3)c2)cc1,14.7
20,COc1cccc2c1C(=O)c1ccc3ccccc3c1C2=O,-1.19
21,Cc1ccc2nc(-c3ccccc3)cc(C(=O)NNC(=O)c3csc(N4CCOCC4)n3)c2c1,1.25
22,CC(C)(C)c1cc2cccnc2n1Cc1cccc(F)c1,0.282

row,SMILES,"hERG current change (%, negative = inhibition) at 1uM [%]"
1,Cn1cc(Br)c(C(=O)NNC(=O)c2ccccc2)n1,-4.57
2,c1ccc(Oc2cccc(OCCCn3cncn3)c2)cc1,0.573
3,Cc1cccc(NC(=O)[C@@H]2CCCN2C2=NS(=O)(=O)c3ccccc32)c1C,8.6
4,Nc1ccc(Nc2ccccc2)cc1,5.24
5,CCOC(=O)Cc1csc(NC(=S)NC(=O)C(C)(C)C)n1,-4.47
6,C/C(=N\NC(=O)c1c(Cl)cnn1C)c1cccc(NC(=O)C(C)C)c1,-5.62
7,CCn1ncc(Br)c1C(=O)Nc1ccc2c(c1)OCCO2,14.5
8,CC(C)C(NS(=O)(=O)c1ccccc1)C(=O)OCc1cc([N+](=O)[O-])cc2c1OCOC2 (stereo not shown),14.7
9,O=C(Oc1cccc(-c2cnc3ccccc3n2)c1)c1ccco1,8.84
10,CC(CN1CCOCC1)(NS(=O)(=O)c1ccccc1)c1ccccc1 (stereo not shown),5.77
11,Cc1cccc(C)c1NC(=O)COC(=O)C1C2CC3OC(=O)C1C3C2 (stereo not shown),17.7
12,COCCCNC(=O)c1ccc(N2CCOCC2)c(NS(=O)(=O)c2ccc(OC)cc2)c1,1.03
13,Cc1cc(NC(=O)CSc2nnc(CNC(=O)c3ccc(F)cc3)o2)no1,3.73
14,CCN(CC)CCNC(=O)Cc1c(C(=O)O)n(CC)c2ccccc12,11.8
15,Cc1noc(C)c1COc1ncnc2ccccc12,16.5
16,COC(=O)C1C(=O)C(C(=O)c2ccc([N+](=O)[O-])cc2)C(=O)CC1(C)C (stereo not shown),14.4
17,CCc1sc(C(=O)N2CCc3ccccc32)cc1C,14.1
18,COc1ccc(CCNC(=O)CN(CCc2ccccc2)S(C)(=O)=O)cc1,15.4
19,CCSc1ccccc1C(=O)NCc1cccnc1,11.8
20,Cc1ccc2ncnc(Nc3ccccc3)c2c1,7.15
21,N#Cc1ccc(CN2CCN(C(=O)c3cc(Cl)c4c(c3)OCCO4)CC2)cc1,-37.2
22,CCCCC(=O)Nc1cc(OCC)c(NC(=O)c2ccccc2[N+](=O)[O-])cc1OCC,13.2

row,SMILES,"hERG current change (%, negative = inhibition) at 1uM [%]"
1,COC(=O)c1cn[nH]c1NC(=S)Nc1ccccc1C,-2.55
2,CC1=CC(C)(C)Nc2ccc(OC(=O)C(Cc3ccccc3)N3C(=O)c4ccccc4C3=O)cc21 (stereo not shown),3.52
3,O=C(NC1CC2CCC(C1)N2Cc1ccccc1)c1ccccc1Cl (stereo not shown),-10
4,O=[N+]([O-])c1nn(-c2ccccc2)n(O)c1=NC1CCN(Cc2ccccc2)CC1,-16
5,CC1CN(S(=O)(=O)c2ccc(F)cc2)C(C)N1C(=O)N1CCOCC1 (stereo not shown),2.56
6,CC1CN(C(=O)c2ccccc2NS(=O)(=O)c2cccc([N+](=O)[O-])c2)CC(C)O1 (stereo not shown),20.8
7,Cc1ccc(C2C(C(=O)c3cccs3)=C(O)C(=O)N2c2cccc(C)n2)cc1 (stereo not shown),7.57
8,COCCNC(=O)C(C)OC(=O)c1cc2sccc2n1C (stereo not shown),6.79
9,COc1cc(NC(=O)C2CCCCC2)c(OC)cc1NC(=O)c1ccco1,-3.2
10,CC(=O)N1CCN(c2ccc(NCc3ccc4c(c3)OCO4)cc2)CC1,10.9
11,O=C(NN1C(=O)C2C3C=CC(O3)C2C1=O)c1cccc(O)c1 (stereo not shown),12.8
12,CCN=C1S/C(=C/c2ccc(-c3ccc(F)cc3)o2)C(=O)N1CC,15.7
13,CCOC(=O)c1sc(NC(=O)C2CCCCC2)nc1C,11.4
14,CCOC(=O)C1=C(CC)OC(N)=C(C#N)C1c1ccc(NC(C)=O)cc1 (stereo not shown),5.16
15,O=C(CSc1ccccc1)Nc1cc(Cl)ccc1Oc1ccccc1,-1.26
16,Nc1cccc2c1C(=O)N(C(=O)c1ccco1)C2=O,5.73
17,COc1ccc(NC(=O)CN2CCN(CC(=O)Nc3ccccc3Cl)CC2)cc1,-79.3
18,Cc1ccc(NC(=O)CNC(=O)c2sc3ccccc3c2Cl)nc1,20.1
19,O=C1NCCNC1(c1c[nH]c2ccccc12)C(F)(F)F (stereo not shown),7.04
20,CCc1cc(CNC(=O)c2ccc(OC3CCN(CCc4ccccc4)CC3)cc2)on1,-54.4
21,COc1ccc(C2/C(=C(/O)c3ccccc3)C(=O)C(=O)N2C)c(OC)c1 (stereo not shown),18.1
22,CC(C)c1ccc(Nc2nnc(SC3CCOC3=O)s2)cc1 (stereo not shown),10.6
